Test results as given in the supplement of paper PMC10126150.
Values marked as one replicate rest on one cluster of the flow cell; about a third of the high ones do not repeat.

The sequences below were run on ATP (assay: switch fluorescence ratio, 500 uM ATP over buffer (Cy3 cluster intensity, sum of 5 cycles each) (fold (ratio)); higher = stronger signal-on switching upon ATP binding; sequences stand for … in TCGTCGGCAGCGTCAGATGTGTATAAGAGACAGTTTTTTTTTTTTTTTTTTTTTTTTT…TC). Settings: aptamer strand: ATP DNA aptamer (quencher-CACCTGGGGGAGTATTGCGGAGGAAGG + anchor), 100 nM annealed; ATP concentration: 500 uM; one replicate.
Procedure, shortened: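 Clusters carrying Cy3-labelled switching strands on a modified Illumina MiSeq flow-cell were annealed to 100 nM quencher-labelled ATP aptamer and imaged in selection buffer. They were imaged again after 15 min with 500 uM ATP at 22 °C, over five buffer/ATP cycles with NaOH stripping and re-annealing in between. For each cluster, the fluorescence ratio is the summed Cy3 intensity of the target cycles divided by that of the buffer cycles, averaged per switch-domain sequence. Clusters outside 100-1000 RFU were left out.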
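Also: ATP exposure 15 min at 22 °C before imaging.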

Row | Sequence | switch fluorescence ratio
1 | CTTTGGCTCC | 1.01
2 | AGTTTTGCGA | 0.936
3 | ACTGATACTA | 1.08
4 | GTCTCCAGTT | 0.992
5 | CGTTTCCCAT | 1.01
6 | GTACTGCTCT | 1.03
7 | GCGCCGGAAG | 1.12
8 | TCGCCAGGAT | 1.02
9 | GAATGTTTAT | 0.981
10 | ACGGTCTAGG | 1
11 | CGCCTAGATT | 0.931
12 | GACACCACTT | 1.3
13 | AAGTAGTAC | 1.1
14 | AATCGGTCTC | 1.01
15 | GCCCCTGCCG | 0.984
16 | ACGATAGTAT | 1.01
17 | GTGATAGCCG | 0.983
18 | CGACTTGAAT | 1.06
19 | AGAGCTTCT | 1.04
20 | TTTCATGTT | 1.02
21 | TCTTGGCAAA | 1.16
22 | ACGGATACGT | 1.02
23 | AATAGCGTTA | 1.09

Row | Sequence | switch fluorescence ratio
24 | TAGTCGACTA | 1.03
25 | TATATGCTTG | 1.02
26 | ATGACATTTA | 1.05
27 | TTGCACAATG | 0.983
28 | TATCACTTGA | 1.04
29 | ATCGTCCGCA | 4.82
30 | CTATCACGAA | 1.03
31 | TAGTACGCGT | 1.02
32 | CTGCGCTTGC | 1.45
33 | GACGCGTCGA | 1.01
34 | CACGTGTAGG | 1.04
35 | ACAGGCTTTG | 0.98
36 | ACGCGATGA | 0.984
37 | AAGGGATAAT | 0.96
38 | GAGGTAGCAG | 1.03
39 | CACGGGCCTT | 0.929
40 | ATCGCTAATT | 1.02
41 | GGGAGGGTT | 1.03
42 | CTGGATTTAG | 1.05
43 | GGAGGACGAC | 1.01
44 | CAGATGATTT | 0.943
45 | CAGGGGTATG | 1.03
46 | GAAGTCACAT | 1.01

Row | Sequence | switch fluorescence ratio
47 | GTCGGTCGGC | 0.911
48 | CAGAACGAGC | 0.965
49 | TGGACACTG | 1.1
50 | GTGGTCGGAT | 0.99
51 | ATAATGGATG | 1.05
52 | TCTTGACATA | 1.03
53 | AACCACGCTC | 1.19
54 | TTGCGGTTTT | 0.948
55 | GGGGATATTG | 0.977
56 | CCGACTGAAT | 3.34
57 | CGGAAAACGG | 0.98
58 | AGACTTATGT | 0.974
59 | GGACCAGTTA | 1.03
60 | GGCACACATC | 1.03
61 | TACTTCGGTA | 1.02
62 | TGAATTGACA | 1.03
63 | CGGAACGTTA | 1.04
64 | ATCCTATGGC | 1.03
65 | GCCCCAAACT | 0.976
66 | CTCTGGAAGG | 1.15
67 | GCCACGGTGT | 1.66
68 | GTCCAAATCG | 1.16
69 | CTTGTCCAC | 0.98

Row | Sequence | switch fluorescence ratio
70 | CACTGAAGAG | 0.989
71 | GACACTAGGA | 1.1
72 | GATGCTGGGC | 0.973
73 | GACCTTTGCA | 1.14
74 | ACGTATTACT | 1.36
75 | CCGTATTGCT | 1.28
76 | AACTATTAGC | 0.976
77 | CCAAGGTTGA | 1.03
78 | GTTGAGCGAC | 1.05
79 | ATTCGTCTGG | 0.942
80 | TGATGCGGAG | 0.954
81 | GAAGGTTCTC | 0.989
82 | CAGGCGGTAT | 1.01
83 | ACTATGGCGT | 0.996
84 | CTGGCAGGAG | 1.07
85 | TGAAACTTTA | 0.948
86 | ATGACGAATG | 1
87 | TGTACAATGA | 1.05
88 | TGCATGACTA | 0.972
89 | GGTCCGGCCG | 0.993
90 | ACTCCGCGGG | 4.77
91 | ATCCCGATCA | 0.993
92 | TCTCGCCGTG | 0.95

Row | Sequence | switch fluorescence ratio
93 | TCGGTAGTCT | 0.987
94 | ATGATCTGTA | 0.998
95 | GGGGTGTCAG | 0.994
96 | ACCTACCTGT | 1.21
97 | ACATTGTAG | 1.01
98 | TTATGTGAAG | 0.984
99 | GGGTTCCTGA | 1
100 | TTGGCAGT | 1.02
101 | AGGAGGGAAG | 0.93
102 | GTAACCGT | 1.01
103 | AATCTCTTGC | 1.01
104 | CCCTTGAGCC | 1.1
105 | TGCCTACGAA | 1.28
106 | CATTCGTCAA | 4.75
107 | GGATATTGG | 0.999
108 | TTGTACGATT | 0.973
109 | GCACTGATAG | 1.01
110 | TTATTGTACG | 1.08
111 | ATTATGTGCG | 0.982
112 | CCAATTCCGG | 1.02
113 | AGGTCAGACT | 1
114 | AATGTTGTAC | 1.04
115 | GCTGGGGT | 1.08

Row | Sequence | switch fluorescence ratio
116 | TAGCATGTTG | 1.02
117 | CTTAGAGGGA | 1.04
118 | TGGGCATACA | 1.15
119 | GGGCAGCGAG | 0.988
120 | TTTAGATAGA | 0.981
121 | CCACCAGAGA | 1.31
122 | GTGAGCGGTG | 1
123 | GCTTAGGTTT | 1.02
124 | AACTGGTGGT | 0.972
125 | CCGAAAAATC | 2.09
126 | TGTTGTAGCA | 0.983
127 | CCCTTCTA | 1.02
128 | TTCCTCGGTC | 1.49
129 | TCATGGAAAC | 1.07
130 | GGCATCCCAA | 1.03
131 | AAGTCGGCCG | 1
132 | TAGCACCCGA | 1.18
133 | CATCCAGTCG | 1.1
134 | GACTATACTT | 1.23
135 | TATGAGAATC | 1.03
136 | GCCCTAGGCG | 1.04
137 | TCTGGTGACT | 1.1
138 | GGGAGCTGGT | 1.41

Row | Sequence | switch fluorescence ratio
139 | ACGTGGACTG | 1.02
140 | TTCCCGTAGG | 1.02
141 | CTAGGATATA | 1
142 | GCTCAAGGTT | 0.978
143 | AAGAAAGTAT | 0.941
144 | ACCGAGAGCC | 1.01
145 | TAGGTAGGCG | 1.01
146 | TAGAGCAGTC | 1.2
147 | TGATGGGTG | 1.03
148 | ATGGTTGTAG | 0.941
149 | TTCAGAAAAG | 1
150 | ATCGTTTTAG | 0.996
151 | GAATGTATGC | 1.03
152 | CGGATTAGCG | 0.994
153 | GGCTTATTAA | 1
154 | TGAAACGTAG | 1.03
155 | AAATCAGACG | 1.04
156 | GTGAGGTCGA | 0.953
157 | ACCTTAACAG | 1.12
